The source gives no read counts; variants with many changes may rest on few reads.

Results on 167 variants are retold here after the RNAGym collection of RNA variant scans (doi:10.7554/elife.90254).

B1: LINE1-full (parent)
chain: UACGUAGGUGGUUUUCCCCUGAUAGUGCUAAGGGGGCCUGGAAGUUUGGACUGGGCAGAGCUCAACACAGCGUGGCAAAGUGGCUGUGGCUAGACUGCCUCUCUGGAUUCCUCGUCACUCAGCAGGGCAUCUCUGAGAGAAAUGCC

The variants in this data set derive from B1. Put plainly: self-cleavage, relative activity (ratio to wild type); higher = more cleavage; in vitro, sequencing; the parent is a self-cleaving ribozyme.
For the variant C103U U108C A129G, the self-cleavage was 1.78.
With U104A U119C A138G, the self-cleavage amounted to 2.45.
For C84G C98U U115G, the self-cleavage was 0.09.
In the case of U96C C110U U143A C146U it was 0.15; in that of U104G U112C A140G, 0.
Regarding U100C C116U A140G, the self-cleavage was 1.95.
With U81C C84U A94G U132C the figure was 0.14.
With C95U U108C U134A, the self-cleavage stood at 0.16.
In the case of C98U U132C A140G it was 0.59; in that of U85A A92G U132C A136U, 0.06; in that of G83A U85A C111U A136G, 0.08.
Take U87C U100C U104A: the self-cleavage worked out at 0.
As to U85C U100C U108C, the self-cleavage came out at 0.
Turning to U87A U130A C145U, the self-cleavage worked out at 0.1.
Take C90U U96C A124C: the self-cleavage was found to be 0.06.
On to U85G U102A U119C, for which the self-cleavage was found to be 0.23.
Take U91G A124G A141G: the self-cleavage is 0.03.
On to U87C U132C A142G, for which the self-cleavage is 0.11.
In the case of U109C A129U A136G it was 1.8.
In the case of G83A U100C A140G, the self-cleavage was 0.93.
In the case of U96C U108C U130C A138U it was 0; in that of U81C U119C A138G, 0.46.
With U81C U102C U119A the figure was 0.34.
On to U102C G114A C131G, for which the self-cleavage came out at 1.56.
With A92G U112G A117U C131U the figure was 0.2; with U81G C90A A92C, 0.01; with U81A U108G U143A, 2.19.
With U85C U96A A129U U130C the figure was 0; with U91A A129G C146U, 1.01.
With U87A U91G U104A A107G the figure was 0.
On to U85C U96C U115A, for which the self-cleavage was determined as 0.06.
On to C90G U108C C123U, for which the self-cleavage is 0.03.
As to U104C A140G A142G, the self-cleavage stood at 1.15.
In the case of A94U C101U A140G it was 0.15; in that of U96A U115C A141G A142G, 0.06.
In the case of U91C U119C U130C it was 0.
In the case of U100C C116U U130C A141G it was 1.2.
As for C84A A117C A124U, the self-cleavage amounted to 0.22.
With C90U A94G A117C C128G, the self-cleavage was found to be 0.02.
On to U91C U130C A142G, for which the self-cleavage was found to be 1.04.
Turning to U85C C116U C120A, the self-cleavage worked out at 0.12.
With U85A U134C A140G the figure was 0.2; with A94G U119C A136G, 0.
Consider U96C U109C U143C, for which the self-cleavage was found to be 0.04.
With U85C C98U C133A the figure was 0.05; with A94G C111A A124G C145U, 0.08.
With C95A U119A A140U the figure was 0.06; with U102C U104C G125A, 1.81; with U102C G126U A142G, 1.86.
In the case of U81C U102C U143C it was 2.42; in that of U100A U134C A142U, 0.59; in that of U87A G89C U115A, 0.05.
Regarding U102C A124G A140G, the self-cleavage came to 0.
U85C U115C U132C: the self-cleavage stood at 0.31.
Take U85C U100A U119C: the self-cleavage amounted to 0.28.
On to U108C U132C G137A, for which the self-cleavage is 2.13.
In the case of U108C U119C U132C it was 2.76.
With A107G U115A A136G the figure was 2.19; with G88U U91C U100C, 0.17; with G88A U108C C116U, 0.05.
With G89A A92G U96C A138U the figure was 0.14; with C98G C101U A129U, 0.23.
On to G82A U87A U132C, for which the self-cleavage came to 0.09.
Take U87C A94G A129G: the self-cleavage came to 0.86.
With U87C C95U U132A A136G the figure was 0.07.
In the case of A94G U115C A141G, the self-cleavage amounted to 1.15.
As to U85C A94G A142G, the self-cleavage is 0.4.
Take U85G U108C U109A A136G U143C: the self-cleavage was found to be 0.
With G86U U102A U112A, the self-cleavage came to 0.05.
With U96A U112A A129G the figure was 0.06; with G86A U109C A141G, 0.09.
With A94U A129G A141G the figure was 0.27.
Take G82A G88U A107G A142G: the self-cleavage was found to be 0.05.
For U96A U102G A107U U132A, the self-cleavage is 0.2.
As for G86U U115A U143A, the self-cleavage is 0.07.
In the case of U96A A124U A140G it was 0.08.
For U87A C101U A136G, the self-cleavage turned out to be 0.07.
In the case of U100A A107U A129G it was 1.21; in that of C99U A124G U143C, 0.44.
Regarding U102C A107G U112C, the self-cleavage was found to be 0.
Consider U85C U100C U104A U130C, for which the self-cleavage was 0.
As for U87C U96A G127U, the self-cleavage was found to be 0.13.
Consider C95U U102C U119C A129U, for which the self-cleavage was determined as 0.32.
With A94G A129U A141U the figure was 0.22; with U96C U109C U112C A129U, 0; with A94U U115C A129U, 0.56.
Turning to U85C G97A A141G, the self-cleavage is 0.04.
In the case of U91A U100A A117G, the self-cleavage was found to be 0.62.
In the case of U85C G86A U134C U143C it was 0.07.
In the case of U91C U102C A107G it was 0.42; in that of A107G U115G U132C A138G, 0; in that of U85C U115C A124G, 0.
With U85A G97U A107G the figure was 0.04; with A107U U108C A138G, 1.73.
Regarding A94G A117G U134G, the self-cleavage was 0.
In the case of G83A U119C C131U, the self-cleavage is 1.07.
For U81C U87A U132A, the self-cleavage was found to be 0.21.
Turning to U85A U112C U119C, the self-cleavage was 0.09.
For the variant C84U U119C A129U, the self-cleavage came out at 0.08.
With U102A A129G A142G the figure was 1.69.
Turning to U87C U119C G144A, the self-cleavage is 0.4.
With U96C U115A A140U the figure was 0.13; with G97A C116A A124G A138G, 0.05.
Turning to U87C G114A U134A, the self-cleavage turned out to be 0.1.
U81A U102C U112A: the self-cleavage was 2.57.
Consider U108A U109C U112C U134A, for which the self-cleavage was 1.97.
For A94G A121U C145G, the self-cleavage is 0.3.
With U96C U100C A138G A142U the figure was 0.85; with U87A C98A A138G A141G, 0.07.
In the case of U108A U109A A129G it was 0.84; in that of U108A A129G A142G, 1.77.
In the case of A107G A117C U119C it was 1.45; in that of U81C U104C A129U, 1.62.
As to U102A U108C U115A, the self-cleavage amounted to 1.48.
Take G88A U100C U104C A121G: the self-cleavage was found to be 0.28.
Turning to G93A A140G A142G, the self-cleavage worked out at 0.03.
In the case of U109A U132C A140G A142G it was 0.38.
For U108C A124U U143A, the self-cleavage was determined as 1.18.
With U81C U102C U134C, the self-cleavage is 0.
For G97A C128U G135U, the self-cleavage was 0.31.
In the case of U109C A136U A138G it was 0.97; in that of U91A U102C U119G, 0.16; in that of U87C U119A U130C, 0.18.
Turning to C90A A107C U115C, the self-cleavage was 0.05.
With U104A U119A A136G the figure was 1.48; with A94G U102C A142G, 0.18; with U87A U115A U119C, 0.03.
With U87C A107U A140G the figure was 0.36.
In the case of U87C U100C U130A it was 0.16.
With U87C U132C A141G, the self-cleavage came to 0.29.
With U100C A121G A129G, the self-cleavage amounted to 1.02.
With G88A A94G U104C the figure was 0.07.
Regarding U81A U119G U134A, the self-cleavage turned out to be 0.
With A107G U112C A121G, the self-cleavage worked out at 0.77.
In the case of G86U A124U A138G it was 0.04.
As for U96A U108C U109A A140G, the self-cleavage was 0.12.
With A92G U115C A142U the figure was 0; with U85A U130C A140G, 0.12.
As to G83A U96A U119A, the self-cleavage amounted to 0.04.
With U87A U109C C118U A124G the figure was 0.08; with G89U U115C U130A, 0.08.
As to U96A G125U U132C A140U, the self-cleavage turned out to be 0.04.
In the case of U104G U108C A136U A141G it was 0.
For the variant U104A C113A A141G, the self-cleavage was 1.22.
As to U81C U102C U104A, the self-cleavage amounted to 0.71.
Consider U85A U108C A138G, for which the self-cleavage turned out to be 0.15.
With G89A U119C U132C the figure was 0.04; with A92G U96A C128A, 0.02; with U81C U100A G105A, 0.89.
Consider U96A C101U A129G, for which the self-cleavage was determined as 0.09.
As for U102C U104G G122A, the self-cleavage was 1.19.
Regarding C90U U130C A142G, the self-cleavage was determined as 0.07.
In the case of U87C U115G U132C it was 0; in that of A92G C120U G125A, 0.
In the case of U81C U109C A121C G125U it was 2.01; in that of A92U U96C A121G U134C U143C, 0.
With U81A U119C U143C C146U the figure was 2.66; with U109C A117U A141G, 1.9; with C103A U104A U130C, 1.65.
For the variant G105A U112C A138G, the self-cleavage stood at 1.66.
In the case of A92U U96C U109C, the self-cleavage was 0.
For U102C A124G U134C, the self-cleavage worked out at 2.12.
With U85A A94U A121U the figure was 0.19; with A92G U102C A107U, 0.
In the case of U87A U104C U119G it was 0.
In the case of U85A G106A A124U A129G C145U it was 0.09; in that of A92G U100A U104C, 0.86.
